Assay results published in PubChem BioAssay AID686979 (National Center for Advancing Translational Sciences (NCATS), 2013).
Values joined by “and” are separate entries in the source; they are usually repeats but may differ in a detail not shown here. Equal entries are not always repeated. Screen size: about 420,000 compounds; about 50,000 (12%) were called active. This list was built around the results that the source calls inconclusive (neither active nor inactive); the mix of calls is not that of the screen. Calls follow the shape of the dose curve; as a rule, active = well fitted inhibition curve with a large enough effect; inconclusive = small, poorly fitted or top-dose-only effect; inactive = flat fitted curve, though single readings scatter. Potencies beside an inconclusive call are fits to weak or partial responses and may not hold up.

Experiment: qHTS for Inhibitors of human tyrosyl-DNA phosphodiesterase 1 (TDP1): qHTS in cells in presence of CPT; also: nearly all actives have a fitted effect of over 55% in size
Settings: chicken DT40 Tdp1-/-;hTDP1 cells + 20 nM CPT, ATP luminescence, 48 h; activity change, negative = growth inhibition: at 46.2 µM (top of the series) unless noted
In short: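 Chicken DT40 Tdp1-/- cells stably complemented with human TDP1 were seeded at 400 cells/well in medium containing 20 nM camptothecin, exposed to pin-transferred compounds, and grown at 37 °C for at least 48 hr. Viability was read as ATP luminescence.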
% is scaled to controls: 0 for no effect and ±100 for the full control effect; potency is read from the fitted curve at half-maximal effect; tags tell the direction and shape of the fitted curve.

SMILES	Potency	activity change, negative = growth inhibition
CC(C)C[C@H](NC(=O)c1[nH]cnc1C(=O)Nc1ccccc1)C(=O)OC(C)(C)C	active: 25.9 µM	
COc1cc(/C=N/NC(=O)/C(=C/c2ccccc2)CCO)ccc1O		inactive: 0.132%
CCCCCCCCCC[n+]1cc(Br)cc(Br)c1	active: 0.794 µM	
Cc1ccc(C(=O)CNc2nc3c(c(=O)[nH]c(=O)n3C)n2Cc2ccccc2)cc1	inconclusive: 29.1 µM [inhibitor, single point]	
Cn1c(=O)c(Sc2ccc(Cl)cc2)c(O)c2ccccc21		inactive: 5.09%
CCOc1ccccc1NC(=O)Cn1c(=O)n(CC(=O)NCc2ccccc2Cl)c(=O)c2sccc21	active: 8.2 µM	
Cc1cc(C)c2sc(NC(=O)C3CC3)nc2c1		inactive: 0.421%
O=Cc1ccc(OC(=O)c2cc(Cl)nc3ccccc23)cc1	inconclusive: 29.1 µM [inhibitor, partial curve, poor fit]	
CCCn1c2ccccc2c2cnn(CC(=O)NCC3CCN(Cc4ccc(C)cc4)CC3)c(=O)c21	active: 20.6 µM	
COc1ccc(-n2ncc3c(NCCCN4CCOCC4)ncnc32)cc1		inactive: -15.3%
COc1ccc2nc(Nc3nc(CSc4ccc(C)cc4)cc(=O)[nH]3)nc(C)c2c1	inconclusive: 20.6 µM [inhibitor, single point]	
Cc1c(C(=O)NCc2ccccn2)sc2nc(-c3ccccc3)cn12	inconclusive: 23.1 µM [inhibitor, single point]	
CCN1CCCC1CNCc1cc2ccc(SC)cc2nc1-c1cc(OC)ccc1OC (configuration not stated)		inactive: -6.04% [at 9.04 µM]
CCNC(=O)CSc1nc2cc(S(=O)(=O)Nc3ccc(OC)cc3)ccc2o1	inconclusive: 13 µM [inhibitor, single point]	
COc1cccc(NC(=S)N2CCN(C)CC2)c1		inactive: 34.8%
CC1(C(=O)NS(=O)(=O)c2ccc3c(c2)CCO3)CCN1C(=O)c1ccccc1CCc1ccccc1 (configuration not stated)	inconclusive: 18.4 µM [inhibitor, single point]	
Cc1cc(SCNC(=O)c2ccccc2)nc(C(C)C)n1		inactive: -11%
CC(C)c1ccc2c(c1)NC(c1ccc(F)cc1)=NC(c1cccs1)=N2	inconclusive: 29.1 µM [inhibitor, single point]	
O=C1NN=C(c2ccccc2)CC1c1ccc(Cl)cc1Cl (configuration not stated)	inconclusive: 29.1 µM [inhibitor, single point]	
COc1cccc(C(=O)Nc2cc(NC(=O)c3cccs3)ccc2C)c1OC	inconclusive: 18.4 µM [inhibitor, single point]	
C[C@@H]1CCC(=O)N(CC[C@H](Sc2ccccc2)c2ccccc2)CC1	active: 12.6 µM	
CCCCCCN1C[C@@H](n2cc(COC(=O)c3ccccc3)nn2)[C@H](O)C[C@@H]1c1ccc(Cl)cc1	active: 13 µM	
CCN(CC)S(=O)(=O)c1cc(C(=O)Oc2cccc(-c3cnc4ccccc4n3)c2)ccc1OC	inconclusive: 18.4 µM [inhibitor, single point]	

SMILES	Potency	activity change, negative = growth inhibition
O=C(CNc1ccc2ccccc2c1)N/N=C/c1ccccn1	inconclusive: 29.1 µM [inhibitor, single point]	
COc1ccc(S(=O)(=O)NCC(c2cccs2)N2CCc3ccccc3C2)cc1 (configuration not stated)		inactive: -25.3%
CC(C)c1ccc2[nH]c(O)c(N=NC(=O)c3cccc(S(=O)(=O)N4CCCCC4)c3)c2c1	active: 11.6 µM	
Cc1ccc(NC(=O)Nc2nnc(SCC(=O)N3CCCCC3)s2)cc1	inconclusive: 20.6 µM [inhibitor, partial curve]	
CNC(=O)c1[nH]cnc1C(=O)N[C@@H](CCCCNC(=O)OC(C)(C)C)C(=O)OC(C)(C)C	inconclusive: 23.1 µM [inhibitor, partial curve]	
O=C(NCCCN1CCOCC1)c1ccc2c(c1)N(Cc1c(F)cccc1Cl)C(=O)c1ccccc1S2	inconclusive: 23.1 µM [inhibitor, single point]	
O=C(NCc1cccc(Br)c1)C1CC(c2ccc(C(F)(F)F)cc2)=NO1 (configuration not stated)	inconclusive: 18.4 µM [inhibitor, single point]	
CCc1noc(C)c1C(=O)Oc1ccc(N(C)S(=O)(=O)c2ccc(C)c(C)c2)cc1	inconclusive: 20.6 µM [inhibitor, single point]	
CCOC(=O)N1CCN(S(=O)(=O)c2ccc([N+](=O)[O-])cc2)CC1		inactive: -0.607%
Cc1ccc(NC(=O)NC2=NN(c3ccccc3)C(=O)/C2=C2/CCCN2C)cc1		inactive: 0.898%
COc1ccccc1Cc1c(-c2ccc(C#N)cc2)nc2ccc(Br)cn12	active: 20.6 µM	
Cc1cccc(C(=O)NCCc2nc3ccccc3n2Cc2ccccc2Cl)c1	inconclusive: 29.1 µM [inhibitor, single point]	
Cc1cc(Nc2cccc(C(F)(F)F)c2)nc2ccc(NC(=O)Cc3ccc(Cl)cc3)cc12	inconclusive: 25.9 µM [inhibitor, single point]	
O=C(c1ccsc1)N1CCCC(N2CCN(c3ccccc3F)CC2)C1 (configuration not stated)		inactive: -27.4%
Cc1ccc(C)n1-c1ccc(N2CCOCC2)cc1	inconclusive: 29.1 µM [inhibitor, single point]	
Cc1ccccc1OCCCCCCN1CCNCC1	active: 23.1 µM	
COc1cccc(CNC(=O)N2CCc3c(sc4c3CCCC4)C2c2ccc(F)cc2)c1 (configuration not stated)	inconclusive: 11.6 µM [inhibitor, single point]	
Cc1nc2ncnn2c(C)c1CCC(=O)N1CCN(c2ccc(F)cc2)CC1	inconclusive: 0.461 µM [inhibitor, partial curve, poor fit]	
CCOC(=O)N1CCN(S(=O)(=O)c2ccc(C)cc2)C1c1ccc(OC)cc1 (configuration not stated)	inconclusive: 23.1 µM [inhibitor, partial curve]	
COC(=O)c1cncc(C)c1		inactive: -3.12%
COc1ccc2c(c1)c(C(O)CN1CCC(Cc3ccccc3)CC1)c(C)n2C (configuration not stated)	inconclusive: 18.4 µM [inhibitor, single point]	
CCCCNC(=S)N1CCn2cccc2C1c1ccc(F)cc1 (configuration not stated)	active: 16.4 µM	
COc1ccccc1CN1CC(C(=O)N(C)Cc2[nH]c3ccccc3c2C)CCC1=O (configuration not stated)	inconclusive: 6.51 µM [inhibitor, full curve]	

SMILES	Potency	activity change, negative = growth inhibition
COc1ccc(/C=C/CN2CCC(CO)(Cc3ccccc3Cl)CC2)cc1	inconclusive: 29.1 µM [inhibitor, single point]	
CCOc1ccccc1CNC(=O)CSc1n[nH]c(-c2ccccc2)n1	inconclusive: 18.4 µM [inhibitor, single point]	
COc1ccc(S(=O)(=O)N2CCN(c3cnccn3)CC2)cc1OC	inconclusive: 32.6 µM [inhibitor, partial curve, poor fit]	
CCOC(=O)CSc1nnc(NC(=O)CN2CCCCC2)s1	inconclusive: 25.9 µM [inhibitor, single point]	
CN1CCN(c2ncnc3ccc(-c4ccccc4C(F)(F)F)cc23)CC1	inconclusive: 20.6 µM [inhibitor, single point]	
CC(O)(c1cccc(F)c1)c1nc(-c2cncnc2)cs1 (configuration not stated)	inconclusive: 29.1 µM [inhibitor, partial curve, poor fit]	
O=C1C(Oc2ccc(Cl)cc2)C(c2ccc3c(c2)OCO3)N1CC1CCCO1 (configuration not stated)	inconclusive: 29.1 µM [inhibitor, single point]	
CCn1c2c(c(=O)n3ncc(C(=O)N4CCN(c5ccccc5)CC4)c13)CN(Cc1ccc(OC)cc1)CC2	active: 16.4 µM	
COc1ccc(OC)c(C2C(C(=O)Nc3ccc(C)cc3C)=C(C)Nc3c(C(=O)Nc4ccc(F)cc4)cnn32)c1 (configuration not stated)	inconclusive: 18.4 µM [inhibitor, single point]	
O=C1CC(SC(=Nc2ccccc2)Nc2ccccc2)C(=O)N1c1cccc(Cl)c1 (configuration not stated)	inconclusive: 18.4 µM [inhibitor, single point]	
Cc1cc(=O)oc2cc(OCC(=O)N/N=C/c3cc([N+](=O)[O-])ccc3O)ccc12	inconclusive: 29.1 µM [inhibitor, single point]	
Cc1ccccc1NC(=O)N1c2ccccc2CC1C (configuration not stated)	inconclusive: 23.1 µM [inhibitor, single point]	
COc1ccc(-c2cc(=O)n(CCC#N)[nH]2)cc1	inconclusive: 25.9 µM [inhibitor, single point]	
Clc1ccc2nc(-c3cccc(Br)c3)c(Cc3ccccc3)n2c1		inactive: -21%
COc1ccc(N(C)S(=O)(=O)c2cccc(C(=O)NC3CCCC3)c2)cc1	inconclusive: 29.1 µM [inhibitor, single point]	
CC(C)(C)NC(=O)[C@@H]1C[C@@H]2CCCC[C@@H]2CN1C[C@@H](O)[C@H](Cc1ccccc1)NC(=O)[C@H](CC(N)=O)NC(=O)c1ccc2ccccc2n1	inconclusive: 23.7 µM [inhibitor, single point] and inconclusive: 29.1 µM [inhibitor, single point]	
Cc1cc(Cl)cc(C)c1OCCCCCn1ccnc1	active: 18.4 µM	
Cc1nn(Cc2ccc(Cl)cc2)c(C)c1NC(=O)/C=C/c1cnn(C)c1	inconclusive: 32.6 µM [inhibitor, partial curve]	
CC(NS(=O)(=O)c1ccc(CCC(=O)NCc2cccnc2)cc1)c1ccccc1 (configuration not stated)		inactive: -17.7%
O=C(Nc1cccc(-c2csc(Nc3ccc(Cl)cc3)n2)c1)c1cccc(C(F)(F)F)c1	inconclusive: 29.1 µM [inhibitor, single point]	
COc1ccc(-c2nnc(CSc3nc4ccccc4c(=O)n3CC3CCCO3)o2)cc1OC (configuration not stated)	inconclusive: 23.1 µM [inhibitor, single point]	
